Out of some 200,000 compounds screened, about 10 (0.005%) were called active. The inconclusive results got no clear call from the source; some entries with a clear call stand among them for comparison. Calls follow the shape of the dose curve; as a rule, active = well fitted inhibition curve with a large enough effect; inconclusive = small, poorly fitted or top-dose-only effect, or effect the other way, or another doubt; inactive = no such curve, though single readings can be large or run the other way. No potency is given beside an inconclusive call; the fits are too rough.
Biological target: Lysosomal alpha-glucosidase (Homo sapiens) (UniProt P10253)
Experiment: qHTS Assay for Inhibitors of Human alpha-Glucosidase as a Potential Chaperone Treatment of Pompe Disease;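 as to activity change, negative = inhibition: plate controls were uninhibited enzyme wells for no effect and no-enzyme background for full effect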
Conditions: purified human GAA, 4-MU-alpha-glucoside fluorescence; activity change, negative = inhibition: at 76.9 µM (top of the series) unless noted
How it was run: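 Human alpha-glucosidase, 4 nM, pre-mixed with test compounds before 400 uM 4-methylumbelliferyl substrate; 20 min room temperature at pH 5.0. Fluorescence read after pH 10 stop; AC50 values from Hill-equation fits.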
Potency is read from the fitted curve at half-maximal effect; tags tell the direction and shape of the fitted curve.

| SMILES | Potency | activity change, negative = inhibition |
| --- | --- | --- |
| Cn1c2ccccc2c(=O)c2c(=O)n(C3CCCCC3)c(-c3ccco3)nc21 | inconclusive [inhibitor, partial curve, poor fit] | – |
| Cc1ccc(-c2csc(Nc3ccc(S(N)(=O)=O)cc3)n2)o1 | inconclusive [inhibitor, full curve] | – |
| CC(=O)N1C(C)c2ccccc2C(C)(C)CC12CCCCC2 (centres undefined) | inconclusive [inhibitor, partial curve, poor fit] | – |
| CCN(CC)C(=O)Nc1c(C)n(C)n(-c2ccccc2)c1=O | inconclusive [inhibitor, full curve, poor fit] | – |
| Cc1ccc(S(=O)(=O)CC2CSc3nnc(C)c(=O)n32)cc1 (centres undefined) | inconclusive [inhibitor, single point] | – |
| CCOc1cc(C)c(S(=O)(=O)N2CCCCC2)cc1C | – | inconclusive: 2.62% [activator] |
| Cc1cc(C)n(-c2cc(N3CCN(C(=O)c4ccc(C(C)(C)C)cc4)CC3)ccc2[N+](=O)[O-])n1 | inconclusive [inhibitor, partial curve, poor fit] | – |
| c1nc(NCCN2CCOCC2)c2c3c(sc2n1)CCCCC3 | inconclusive [inhibitor, single point] | – |
| Cc1cccc(N(C(=O)CNC(=O)c2ccco2)C(C(=O)NCC2CCCO2)c2ccccc2)c1 (centres undefined) | – | inconclusive: 16.3% [activator] |
| Cc1c(NCc2nc3ccccc3[nH]2)c(=O)n(-c2ccccc2)n1C | inactive | – |
| Cc1cc(OC(=O)c2c(F)cc(F)cc2F)nc(C)n1 | inconclusive [inhibitor, full curve, poor fit] | – |
| COC(=O)C1=C(N)Oc2cc(C)n(Cc3cccnc3)c(=O)c2C1c1ccc(OC)c(OC)c1 (centres undefined) | inconclusive [inhibitor, partial curve] | – |
| CC1=C(C#N)CCC(=O)N1Cc1ccc(C)cc1 | – | inconclusive: -17.1% [inhibitor] |
| O=C(NCC1CCCO1)c1ccc2c(=O)n(CCc3ccccc3)c(=O)[nH]c2c1 (centres undefined) | inconclusive [activator, partial curve] | – |
| COc1ccc(-c2nnc(SCC(=O)Nc3cc(S(=O)(=O)N4CCCCC4)ccc3Cl)n2N)cc1 | inconclusive [inhibitor, single point] | – |
| O=S(=O)(c1ccc2nc(SCc3ccc(Cl)cc3)[nH]c2c1)N1CCOCC1 | inconclusive [inhibitor, single point] | – |
| CCCc1n[nH]c2c1/C(=N\OCC)CC(C)(C)C2 | – | inconclusive: -16.2% [inhibitor] |
| Cc1ccc(C)c(S(=O)(=O)N2CCN(CC(=O)Nc3ccc4c(c3)CCC4)CC2)c1 | inconclusive [inhibitor, partial curve, poor fit] | – |
| CC(C)(C)NC(=O)NC(=O)COC(=O)Cc1coc2ccc3ccccc3c12 | inconclusive [inhibitor, partial curve] | – |
| CN1CCc2c(sc3c2C(=O)NC(c2ccccc2)N3)C1 (centres undefined) | inconclusive [activator, partial curve] | – |

| SMILES | Potency | activity change, negative = inhibition |
| --- | --- | --- |
| CSc1ccc(/C=N\NC(=O)CC(=O)NC(C)C)cc1 | – | inconclusive: 4.73% [activator] |
| CCOC(=O)c1ccc(N2C(=O)CC(SCC(=O)Nc3ccc(S(N)(=O)=O)cc3)C2=O)cc1 (centres undefined) | inconclusive [inhibitor, single point] | – |
| O=C(NC1CCCCC1)c1ccc(S(=O)(=O)N2CCOCC2)cc1 | inconclusive [inhibitor, partial curve] | – |
| COCc1cc(C(C)=O)ccc1OCC(=O)Nc1ccc(NC(C)=O)cc1 | inconclusive [inhibitor, single point] | – |
| COc1ccc(NC(=O)CC(c2ccccc2)c2ccco2)cc1 (centres undefined) | inconclusive [inhibitor, full curve] | – |
| CCOC(=O)c1ccc(N2C(=O)C(O)=C(C(C)=O)C2c2ccc(O)c(OC)c2)cc1 (centres undefined) | inconclusive [activator, single point] | – |
| O=C(COc1cccnc1[N+](=O)[O-])Nc1ccc(S(=O)(=O)N2CCOCC2)cc1 | inconclusive [inhibitor, single point] | – |
| Cc1cc(N2C(=O)C(=O)/C(=C(/O)c3ccc(F)cc3)C2c2ccc(Cl)cc2)no1 (centres undefined) | inconclusive [inhibitor, partial curve] | – |
| CCCCCn1c(=O)[nH]c2cc(C(=O)NCCCN(C)Cc3ccccc3)ccc2c1=O | inconclusive [activator, partial curve] | – |
| CNc1nc2[nH]c(=O)c3c(c2s1)OC(N)=C(C#N)C3c1ccccc1 (centres undefined) | inconclusive [inhibitor, partial curve] | – |
| CC1CCN(c2nc(-c3ccccc3)c(C#N)c(=O)[nH]2)CC1 | – | inconclusive: 16.1% [activator] |
| Cc1ccc(-c2nc3cnccn3c2Nc2ccc3c(c2)OCO3)o1 | inconclusive [inhibitor, single point] | – |
| COc1ccc2oc(=O)c(C(=O)C[n+]3cccc(C)c3)cc2c1 | – | inconclusive: 11.8% [activator] |
| COc1ccc(-c2nc(-c3ccc(O)cc3O)cs2)cc1OC | inconclusive [inhibitor, partial curve] | – |
| Cc1nc2sc(C(c3ccco3)N3CCC(Cc4ccccc4)CC3)c(O)n2n1 (centres undefined) | inconclusive [inhibitor, single point] | – |
| COc1cc(OC)c2c(C)c(Cl)c(=O)oc2c1 | inconclusive [activator, partial curve] | – |
| COC(=O)CCCCC1SCC(NC(=O)c2ccccc2)C1=O (centres undefined) | – | inconclusive: -20.1% [inhibitor] |
| CCn1c2ccccc2c2cc(NC(=O)CSc3nccc(=O)[nH]3)ccc21 | inconclusive [inhibitor, single point] | – |
| CSc1ccccc1C(=O)NCc1ccccc1 | inconclusive [inhibitor, single point] | – |

From PubChem BioAssay AID1466 (National Center for Advancing Translational Sciences (NCATS), 2008)
